# Measured values taken from the supplement of paper PMC3724861.
# The other results are listed elsewhere or left out.
# Tested on: T1, Caupolican (Caup) homeodomain DNA-binding domain
# T1 sequence: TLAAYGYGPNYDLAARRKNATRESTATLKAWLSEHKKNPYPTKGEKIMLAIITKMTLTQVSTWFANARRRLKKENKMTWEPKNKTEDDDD
# Experiment: PBM E-score (8-mer, recovered from the published 9-mer minima) (E-score (dimensionless, -0.5 to 0.5)); Drosophila protein; higher = stronger relative binding preference, active = 0.31 or more
# In short: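 Caup's homeodomain DNA-binding domain (residues 214-303) was made by in vitro transcription and translation and applied at 100 nM to custom-designed protein binding microarrays. Each value is an enrichment score that gives relative binding preference for a short DNA word, with higher meaning stronger. The 8-mer values were recovered from published 9-mer scores, each of which was the minimum of its two constituent 8-mer scores. A cutoff of 0.31 marks candidate sites.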
row,Sequence,PBM E-score
1,CTTCAAAG,inactive: 0.0151
2,ATCAGGAT,inactive: 0.0277
3,CAGTCCAC,inactive: -0.103
4,CCAGGTAG,inactive: -0.0444
5,ACCCTAGA,inactive: -0.0173
6,CAGTTTTA,inactive: -0.0317
7,ACTAAAGA,inactive: -0.00917
8,GACGCTGC,inactive: -0.148
9,GCCAATGA,inactive: -0.0694
10,AGTTACCC,inactive: 0.0727
11,CTACCAAC,inactive: 0.174
12,CTTACCGC,inactive: -0.0625
13,AGACGCAG,inactive: -0.0515
14,GGACCGCA,inactive: -0.188
15,ACTCAACA,≥ 0.178
16,CGTGAGGA,inactive: -0.0619
17,CTACTTCA,inactive: -0.0221
18,CGCACCAC,inactive: -0.0764
19,ATAAGTGG,inactive: 0.0344
20,AACGTGCG,inactive: -0.0165
21,TCGCTGAA,inactive: -0.018
22,GGGTATAC,inactive: 0.0801
23,CACCTTCG,inactive: -0.0818

row,Sequence,PBM E-score
1,CGAATTAG,inactive: 0.106
2,GCGGACTA,inactive: 2e-05
3,ATACATTG,inactive: 0.261
4,ATGTAGGC,inactive: 0.12
5,GGGCGGTA,inactive: -0.243
6,AGGCGGAA,inactive: -0.0545
7,TCGCACAA,inactive: 0.03
8,AGGCAACA,inactive: 0.0395
9,ACTGACCA,inactive: -0.0989
10,ATGGCGGC,inactive: -0.15
11,AAACCTAT,inactive: 0.0971
12,TAATCAAA,inactive: 0.176
13,GCAATTAC,inactive: -0.0243
14,CAATAAGG,inactive: -0.0326
15,CAAGTGCA,inactive: 0.145
16,AATTACAC,inactive: 0.299
17,ATCGTATA,inactive: 0.17
18,ATTATAGG,inactive: 0.0888
19,AAACCAAC,inactive: 0.099
20,GCAGATCA,inactive: 0.0121
21,CCTCTACG,inactive: -0.0999
22,TCCTGACA,≥ 0.218
23,CTATATGA,inactive: 0.0936

row,Sequence,PBM E-score
1,CCTCCGGC,inactive: -0.25
2,ACCAGGAT,inactive: 0.0682
3,ACACCAAT,inactive: 0.189
4,CGGTGTGC,inactive: -0.147
5,ACGGCTTG,inactive: -0.133
6,ATTCCTAG,inactive: -0.0259
7,CACGCCGC,inactive: -0.181
8,CGCCGACA,inactive: -0.00338
9,AGCGTGTC,inactive: 0.231
10,ACTTCTAC,inactive: 0.113
11,TATCTGGA,inactive: -0.0362
12,GGTTGAGA,inactive: -0.132
13,TAAAAAAA,inactive: 0.0221
14,ACTGTACA,inactive: 0.257
15,AACGTGAG,inactive: -0.0335
16,AAGGCAGG,inactive: -0.12
17,CGGACCCA,inactive: -0.12
18,CAGAACTG,inactive: 0.0475
19,AATATTCT,inactive: 0.136
20,AGCGGTAT,≥ 0.0704
21,CTATATAA,inactive: 0.141
22,CAGCCAAC,inactive: -0.0706
23,AGGTCAAT,inactive: 0.0587

row,Sequence,PBM E-score
1,GGCAGCTA,inactive: -0.136
2,AGAGCGTC,inactive: -0.0587
3,GTGCATCA,inactive: 0.088
4,CGGATCGA,inactive: -0.118
5,ACACGGTG,inactive: 0.307
6,GGCGCTAC,inactive: -0.16
7,AAAGGCGA,inactive: -0.0088
8,ACGACCAT,inactive: 0.0458
9,CCACGGTC,inactive: -0.131
10,ATTCAGGC,inactive: -0.0455
11,CCAACCCA,inactive: -0.128
12,ACAAGCGT,inactive: 0.265
13,ATGATAAG,inactive: 0.126
14,AATAAGGT,inactive: 0.0179
15,ATCTAGGA,inactive: -0.0135
16,CATGTTGC,inactive: 0.279
17,CCAGTGCG,inactive: -0.16
18,ATTCCGCC,inactive: -0.117
19,CAAACAGA,inactive: 0.115
20,CGGCTCCA,≥ -0.097
21,ACCAATTC,inactive: 0.101
22,CGATGACC,inactive: -0.0166
23,CGTCCTGC,inactive: -0.113

row,Sequence,PBM E-score
1,ACAGCGAT,inactive: 0.0318
2,AGTCGCGC,inactive: -0.119
3,TATACGCA,inactive: 0.0803
4,CCACTCGG,inactive: -0.158
5,CCGATGAC,inactive: -0.0299
6,ATCTTTAG,inactive: -0.00571
7,ATGAATCC,inactive: 0.104
8,CTGATGCA,inactive: 0.0187
9,ATGGTGAA,inactive: -0.0304
10,GCATTCCA,inactive: -0.0726
11,AGCGCAGA,inactive: -0.1
12,CGTACGTA,inactive: 0.0739
13,CGCGAAAC,inactive: -0.0398
14,GATCCGGC,inactive: -0.107
15,AAACTATT,inactive: 0.0958
16,ACGGGCCT,inactive: -0.195
17,CACGGGAG,inactive: -0.0794
18,CAGCCGAA,inactive: -0.0791
19,CGCCGGTA,inactive: -0.0479
20,AATATCGA,inactive: 0.15
